Assay results published in PubChem BioAssay AID1468 (National Center for Advancing Translational Sciences (NCATS), 2008).
Several values for one entry are separate records, joined by “and”; a condition that tells them apart may be missing. Equal values may be shown once. The campaign covered roughly 280,000 compounds. About 1,100 (0.39%) were called active. This list was built around the results that the source calls inconclusive (neither active nor inactive); the mix of calls is not that of the screen. Calls come from the whole dose curve; as a rule, active = well fitted inhibition curve with a large enough effect; inconclusive = small, poorly fitted or top-dose-only effect, or effect the other way; inactive = flat fitted curve, though single readings scatter. Potencies beside an inconclusive call are fits to weak or partial responses and may not hold up.

The molecules below were run against Microtubule-associated protein tau (Homo sapiens) (UniProt P10636) (assay: qHTS for Inhibitors of Tau Fibril Formation, Fluorescence Polarization). Details: K18 P301L tau heparin fibrillization, Alexa594 FP, 6 h; series mostly up to 57.7 µM.
Method in brief: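 Quantitative HTS format: compounds meet 15 uM recombinant K18 P301L tau and Alexa 594-tau tracer in 100 mM sodium acetate pH 7; 20 uM heparin triggers fibrillization at 37 C over 6 hr; FP gives the signal.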
% is set by controls: 0 for no effect and ±100 for the full control effect; potency is the fitted concentration of half-maximal effect; tags give direction and shape of the fitted curve.
Note: nearly all actives have a fitted effect of over 55% in size.

Sequence of UniProt P10636 (P10636 whole entry, looked up): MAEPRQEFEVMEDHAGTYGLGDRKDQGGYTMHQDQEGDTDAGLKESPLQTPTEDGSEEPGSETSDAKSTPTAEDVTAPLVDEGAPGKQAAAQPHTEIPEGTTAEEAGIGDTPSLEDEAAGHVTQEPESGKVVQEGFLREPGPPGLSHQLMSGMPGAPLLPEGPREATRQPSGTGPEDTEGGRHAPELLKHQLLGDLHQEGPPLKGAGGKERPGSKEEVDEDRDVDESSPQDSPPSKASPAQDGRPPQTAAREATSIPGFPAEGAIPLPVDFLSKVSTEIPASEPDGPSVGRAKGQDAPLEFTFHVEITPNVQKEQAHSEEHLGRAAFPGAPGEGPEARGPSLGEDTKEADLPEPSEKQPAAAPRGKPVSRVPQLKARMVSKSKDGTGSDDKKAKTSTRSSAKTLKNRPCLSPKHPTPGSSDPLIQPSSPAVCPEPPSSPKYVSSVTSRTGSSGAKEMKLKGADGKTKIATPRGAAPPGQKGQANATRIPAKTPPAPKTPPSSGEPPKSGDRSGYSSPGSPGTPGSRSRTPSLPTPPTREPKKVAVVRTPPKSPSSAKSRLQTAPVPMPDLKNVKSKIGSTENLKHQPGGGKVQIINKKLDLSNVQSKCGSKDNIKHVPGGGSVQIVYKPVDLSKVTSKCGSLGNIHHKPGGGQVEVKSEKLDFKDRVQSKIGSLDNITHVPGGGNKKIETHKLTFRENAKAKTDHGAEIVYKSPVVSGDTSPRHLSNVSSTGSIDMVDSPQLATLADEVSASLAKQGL

| Structure (SMILES) | Potency | activity, negative = inhibition |
| --- | --- | --- |
| Cn1c(N)c(C#N)c2c(c1=S)COC(C)(C)C2 | inactive | – |
| COc1cc(/C=C/[N+](=O)[O-])ccc1OCc1cccc(C(=O)O)c1 | inconclusive: 15.8 µM [activator, single point] | – |
| O=C(CSc1nnnn1-c1ccccc1F)NNC(=O)c1ccco1 | inactive | – |
| Cc1ccc(C2C=C(c3ccc(Cl)cc3)Nc3nc(NC(=O)c4ccco4)nn32)cc1 (stereo unspecified) | inconclusive: 10 µM [activator, partial curve, poor fit] | – |
| COc1ccc(NC2c3ccccc3C(=O)N2Cc2ccccc2Cl)cc1OC (stereo unspecified) | inconclusive: 10 µM [inhibitor, single point] | – |
| O=C(CS)Nc1ccc2ccccc2c1 | inconclusive: 25.1 µM [inhibitor, partial curve] | – |
| Cc1cc(C)cc(N2C(=O)CCSC23C(=O)N(Cc2ccccc2)c2ccccc23)c1 (stereo unspecified) | inconclusive: 44.7 µM [inhibitor, single point] | – |
| CCOc1ccc(CCNC(=O)c2ccc3c(c2)sc2nc(-c4ccc(F)cc4)cn23)cc1OCC | inconclusive: 2.24 µM [inhibitor, full curve] | – |
| O=S(=O)(NCCc1csc2nc(-c3ccc(F)cc3)nn12)c1ccc(Oc2ccccc2)cc1 | inconclusive: 12.6 µM [inhibitor, partial curve] | – |
| Cc1c(CC(=O)Nc2ccc(Cl)cc2)sc2ccc(Cl)cc12 | inconclusive: 7.08 µM [inhibitor, single point] | – |
| Cc1nc(CCNC(=O)c2ccccc2)cs1 | inconclusive: 0.0224 µM [inhibitor, full curve, poor fit] | – |
| Cn1cc(-c2nnnn2-c2cccc(C(F)(F)F)c2)c(C(F)(F)F)n1 | inactive | – |
| Cc1ccc(C(CC(=O)Nc2ccc(F)c(Cl)c2)N2Cc3ccccc3C2=O)cc1 (stereo unspecified) | inconclusive: 25.1 µM [inhibitor, single point] | – |
| CC(=O)N1C(=O)/C(=C2\SC(=S)N(NC(=O)c3ccc(O)cc3)C2=O)c2ccccc21 | inconclusive: 14.1 µM [inhibitor, partial curve] | – |
| O=C(CSc1n[nH]c(-c2ccccc2O)n1)N1CCCc2ccccc21 | inactive | – |
| Cc1cc(C)cc(Nc2cc(C)nc3nc(-c4ccco4)nn23)c1 | inconclusive: 39.8 µM [inhibitor, single point] | – |
| COc1ccc(COc2cc(-c3cccc(OC)c3)nc3ccc(NC(=O)c4ccc(OC)cc4)cc23)cc1 | inconclusive: 12.6 µM [inhibitor, partial curve] and inconclusive: 17.8 µM [inhibitor, partial curve, poor fit] | – |
| CC1CC(C)CN(CCOCCSc2ccc(Cl)cc2)C1 (stereo unspecified) | inactive | – |
| CCOC(=O)c1cnc(N2CCN(c3ccc(C)cc3C)CC2)c2ccccc12 | inactive | – |
| COc1ccc(Nc2ccnc(Nc3ccc(OC)cc3)n2)cc1 | inactive | – |
| Cc1ccccc1CNC(=O)c1ccc2[nH]c(C)c(C)c2c1 | inconclusive: 17.8 µM [activator, single point] | – |
| CC(=O)N1CCN(c2nc(-c3ccco3)c3c(c2C#N)CC(C)(C)SC3)CC1 | inactive | – |
| CCCCN(C(=O)NC(=O)Nc1ccc(C)cn1)S(C)(=O)=O | inactive | – |
| C=CCNC(=S)Nc1cc(C)ccn1 | inactive | – |

| Structure (SMILES) | Potency | activity, negative = inhibition |
| --- | --- | --- |
| CC(=O)Oc1ccc2c(C)cc(=O)oc2c1 | inactive | – |
| C=CCn1c(SCc2nc3scc(-c4ccccc4)c3c(=O)[nH]2)nnc1-c1ccccc1F | inconclusive: 25.1 µM [activator, single point] | – |
| Cn1c(=O)c2[nH]c(Nc3ccccc3)nc2n(C)c1=O | inactive | – |
| Cc1ccc(-c2nc3ccccc3[nH]2)cc1NC(=O)c1sc2cc(Cl)ccc2c1Cl | inconclusive: 39.8 µM [inhibitor, single point] | – |
| COc1ccc(-c2csc(NC3OC(=O)c4c3ccc(OC)c4OC)n2)cc1OC (stereo unspecified) | inconclusive: 31.6 µM [inhibitor, single point] | – |
| Cc1cc(C)cc(NC(=O)Cn2c(=O)n(Cc3ccc4c(c3)OCO4)c(=O)c3oc4ccccc4c32)c1 | inconclusive: 35.5 µM [inhibitor, partial curve] | – |
| COc1cc2c(cc1C(F)(F)F)N(C(=O)Nc1cc(F)cc(-c3cccnc3)c1)CC2 | inconclusive: 1 µM [inhibitor, single point] | – |
| NS(=O)(=O)c1ccc(NC(=S)Nc2ccn(Cc3cccc4ccccc34)n2)cc1 | inconclusive: 25.1 µM [inhibitor, partial curve] | – |
| CCC(Sc1nc(C)cc(C)n1)C(=O)NC1=NN=C(c2ccc(C)cc2)CS1 (stereo unspecified) | inconclusive: 20 µM [inhibitor, partial curve] | – |
| Cc1ccc(NC(=O)c2cc(=O)c3ccccc3o2)cc1S(=O)(=O)N1CCCCC1 | inconclusive: 8.91 µM [inhibitor, partial curve] | – |
| O=C(c1ccc(N2C(=O)C3CC=C(Cl)CC3C2=O)cc1)N1CCCCC1 (stereo unspecified) | inactive | – |
| O=C(/C=C\Nc1ccccn1)c1ccccc1 | inactive | – |
| C=CCn1c(N)c(C(=O)Nc2cccc(C)c2)c2nc3ccccc3nc21 | inconclusive: 8.91 µM [inhibitor, partial curve] | – |
| COc1ccc(C(=O)Nc2ccc3oc(Cc4ccc(Cl)cc4)nc3c2)cc1OC | inconclusive: 20 µM [inhibitor, partial curve] | – |
| C=CCn1c(Sc2ncc([N+](=O)[O-])s2)n[nH]c1=O | inconclusive: 39.8 µM [inhibitor, single point] | – |
| Nc1nonc1C(=O)N/N=C/c1ccc(-c2ccc(Cl)c(C(=O)O)c2)o1 | inactive | – |
| COc1ccc(-n2nnc3c(=O)n(Cc4cccc(C)c4)cnc32)cc1 | inconclusive: 8.91 µM [inhibitor, partial curve] | – |
| COC(=O)c1ccc2c(=O)n(CC3CCCO3)c(SCC(=O)Nc3ccccc3Cl)nc2c1 (stereo unspecified) | inconclusive: 44.7 µM [inhibitor, single point] | – |
| COc1ccc(C(=O)OCC(=O)c2ccc(C3CCCCC3)cc2)cc1 | inconclusive: 39.8 µM [inhibitor, single point] | – |
| CC#CCN1c2ccccc2[C@]23C[C@@H](C(=O)OC)N(C(=O)c4cccs4)C2=NC(C(=O)OC)=C(C(=O)OC)[C@H]13 | – | inactive: 2% [at 11.6 µM] |
| CN(C)CCNC(=O)c1ccc(Cn2c(=O)c3cccn3c3cccnc32)cc1 | inactive | – |
| CN(C)c1ccc(/C=C2\SC(=S)N(Nc3ncc(C(F)(F)F)cc3Cl)C2=O)cc1 | inactive | – |
| COc1ccc(NC2CC(=O)N(c3ccccc3)C2=O)cc1 (stereo unspecified) | inactive | – |
| CCOc1ccc(-c2csc(-c3c(N)c(C(=O)c4ccc5c(c4)OCO5)n4ccccc34)n2)cc1 | inconclusive: 1.26 µM [activator, full curve, poor fit] | – |

| Structure (SMILES) | Potency | activity, negative = inhibition |
| --- | --- | --- |
| O=C(c1ccc(Cl)cc1)c1ccccc1C(=O)N1CCOCC1 | inactive | – |
| CC(=O)c1cccc(Nc2ccc3cc(S(=O)(=O)N4CCCC4)ccc3n2)c1 | inconclusive: 39.8 µM [inhibitor, single point] | – |
| N/C(=N/O)c1nc(N2CCCC2)nc(N(c2ccccc2)c2ccccc2)n1 | inactive | – |
| COc1ccc(-n2c(=O)c3c4c(sc3n3c(SC(C)C)nnc23)COC(C(C)C)C4)cc1 (stereo unspecified) | inactive | – |
| COc1ccccc1NC(=O)CSc1nnc(Cc2ccccc2)o1 | inactive | – |
| Cn1c(N)c(C(=O)COC(=O)C2(c3ccc(Cl)cc3)CCCC2)c(=O)n(C)c1=O | inconclusive: 28.2 µM [inhibitor, partial curve] | – |
| CCOC(=O)C1=C(C)Nc2sc(C(=O)c3ccc(F)cc3)c(N)c2C1c1ccc(C(=O)OC)cc1 (stereo unspecified) | inconclusive: 3.55 µM [activator, full curve, poor fit] | – |
| COC(=O)c1sc(N)c(C(=O)OC)c1COC(=O)C1CC(=O)N(Cc2ccco2)C1 (stereo unspecified) | inactive | – |
| COc1ccc(NC(=O)CCCc2nnc3n(C(C)C)c(=O)c4sccc4n23)cc1Cl | inactive | – |
| CCc1ccc(OCc2n[nH]c(=S)n2Cc2ccccc2)cc1 | inconclusive: 0.355 µM [inhibitor, single point] | – |
| CCSc1nc(-c2ccc(OC)cc2)cc(-c2ccc(OC)cc2)c1C#N | inconclusive: 11.2 µM [inhibitor, partial curve] | – |
| CCC1CCCCN1C(=O)COc1ccccc1NC(C)=O (stereo unspecified) | inactive | – |
| COc1cc(Cl)c(NC(=O)CN2C(=O)c3cccnc3Sc3ccccc32)c(OC)c1 | inactive | – |
| COc1ccc2c(c1)c(C(=O)N/N=C/c1ccc(O)c(O)c1)c(C)n2C | inactive | – |
| CCOC(=O)c1c(C)[nH]c(C(=O)COC(=O)CNC(=O)c2ccc(Br)cc2)c1C | inactive | – |
| COc1cc(C(=O)Nc2ccc(-c3nc4cc(C)c(C)cc4o3)cc2)cc(OC)c1OC | inconclusive: 1.78 µM [inhibitor, full curve] | – |
| Cn1c(SCc2nc3ccccc3s2)nnc1-c1cccs1 | inactive | – |
| COc1ccc(-c2nn(-c3ccccc3)cc2C(=O)Nc2nccs2)cc1 | active: 28.2 µM | – |
| CC1(C)CC2CC(C)(CN2S(=O)(=O)c2ccc(C(=O)Nc3ccc(Cl)c(S(=O)(=O)N4CCOCC4)c3)cc2)C1 (stereo unspecified) | inconclusive: 25.1 µM [inhibitor, partial curve] | – |
| O=C(Nc1ccc(-n2nncc2-c2ccco2)cc1)c1ccc(F)cc1 | inconclusive: 12.6 µM [inhibitor, single point] | – |
| COc1ccc(C(=O)/C=C/Nc2cccc(O)c2)cc1 | inactive | – |
| O=c1c2ccccc2sn1-c1ccc(S(=O)(=O)N2CCCC2)cc1 | inconclusive: 14.1 µM [inhibitor, partial curve] | – |
| CC(C)(C)c1cc(C(c2cccnc2)N2CCN(CCO)CC2)cc(C(C)(C)C)c1O (stereo unspecified) | inconclusive: 39.8 µM [inhibitor, single point] | – |
